# In all, about 33,000 sequences were measured (“E-score (-0.5 to 0.5)”: median about -0.035, highest 2% from about 0.34 on). This is one part of the list.
# Molecular target: T1, Mot3 (UniProt P54785)
# T1 sequence: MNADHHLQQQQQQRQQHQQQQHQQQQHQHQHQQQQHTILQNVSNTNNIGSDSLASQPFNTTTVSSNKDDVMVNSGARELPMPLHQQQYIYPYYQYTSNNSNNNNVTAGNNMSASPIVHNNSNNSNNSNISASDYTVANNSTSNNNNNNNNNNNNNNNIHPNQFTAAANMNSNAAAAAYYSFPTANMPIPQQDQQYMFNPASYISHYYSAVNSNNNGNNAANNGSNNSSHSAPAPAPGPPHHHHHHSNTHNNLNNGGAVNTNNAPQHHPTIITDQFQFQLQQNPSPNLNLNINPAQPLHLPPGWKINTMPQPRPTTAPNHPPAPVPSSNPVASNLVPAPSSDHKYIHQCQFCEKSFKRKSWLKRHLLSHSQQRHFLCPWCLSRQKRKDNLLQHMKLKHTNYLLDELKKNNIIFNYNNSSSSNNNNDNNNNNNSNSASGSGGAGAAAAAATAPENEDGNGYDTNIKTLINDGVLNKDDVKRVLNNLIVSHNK
# Test: PBM E-score (8-mer binding enrichment) (E-score (-0.5 to 0.5)); higher = stronger / more preferred TF binding; most listed sequences are background and not binding sites
# Conditions: protein concentration: 200 nM; construct: GST-full length
# Method in brief: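 Yeast transcription factors, full-length or as DNA-binding domains, were expressed with a GST tag using PURExpress in vitro transcription/translation. At about 100-200 nM they were applied to universal all-10-mer Agilent arrays, double-stranded by primer extension on fresh or once-stripped slides. Fluorescent anti-GST detected bound protein, and masliner normalised the scans. E-scores for ungapped eight-base words, pooled with reverse complements, came from the Universal PBM Analysis Suite.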
row,Sequence,PBM E-score
1,ACTCAGTC,-0.0479
2,GAATCCCC,-0.143
3,CACATCCG,-0.00122
4,GCAAGAGC,0.113
5,AGTCGAGA,-0.184
6,ATCATCGA,-0.0664
7,TACGCAAA,0.206
8,ATAGAACG,0.132
9,TCAACGGA,-0.113
10,CAACGATC,-0.11
11,AAAGGCAG,0.282
12,TAGTGGCA,-0.239
13,CACTGTGA,-0.103
14,CTCTTGAA,-0.132
15,AGATATCG,-0.126
16,AGGGACCG,-0.265
17,CGACGGGA,-0.118
18,AGTAGTAA,0.119
19,AGGAGCGA,-0.242
20,ATTGGTCA,0.0185
21,ATCCGGCA,-0.155
22,ATGACTAG,0.0793
23,AATTAGAC,0.0216
24,ACCTGGCC,-0.00623
25,CATATACG,0.226

row,Sequence,PBM E-score
1,ACGGAAAC,-0.122
2,ACCGTTAA,0.0703
3,GAGTTTGA,-0.0109
4,AACAAGGA,0.227
5,GGAGCTCC,0.0683
6,CCTGGGCG,-0.153
7,ATTTATCG,0.0319
8,CGAGTGCC,0.247
9,GATCGCGC,0.0714
10,TCCCTAGA,-0.244
11,AAGAGGCT,-0.222
12,ACATCTTC,0.0216
13,GGTCGGCA,-0.278
14,CACGATAA,0.215
15,CATGCCGC,-0.137
16,CAACCTGA,-0.0558
17,CGTTCATA,0.146
18,CGTTTGGC,-0.0998
19,AGGTTGTG,0.0214
20,ATGGCCGC,-0.233
21,CACGTAGA,0.308
22,CCCATTCA,-0.178
23,ACTTGAAA,-0.0285
24,ACCGATGA,-0.0168
25,ATACAACC,0.262

row,Sequence,PBM E-score
1,CGACTAAC,0.088
2,GAACCCCA,-0.0338
3,CCTAGCTA,-0.0896
4,CCTACCAG,-0.023
5,GCATACTA,-0.0476
6,TGAAATCA,0.0139
7,CCGGGTCA,-0.346
8,CAGAAAGA,-0.106
9,CACATTTA,0.143
10,AGATTCTA,0.011
11,GCGTCTAC,-0.0217
12,ACCCGTAT,-0.00316
13,GCAAGGAA,0.211
14,AGGCTTAG,0.0248
15,AATTAAAC,0.205
16,CAAAGTAC,0.129
17,CACGAATA,0.155
18,GACCCAGC,-0.167
19,CTTATTGA,-0.125
20,CTATCCGC,-0.0368
21,ACCACTTA,0.0505
22,GCAGGAGA,-0.149
23,CAGGTCGG,-0.196
24,AGCGGGCG,-0.108
25,CAGCCATC,-0.103

row,Sequence,PBM E-score
1,ATACTACG,0.0591
2,AACATTAC,0.338
3,ACCGATAT,-0.09
4,CGAAACCA,-0.0235
5,CATCAATA,0.101
6,ACGCCGAA,-0.273
7,ACAAACGC,0.168
8,CGAACCCG,-0.223
9,CAATAGGA,0.114
10,AAGCTTAT,-0.0472
11,ACTACCAT,0.0224
12,ACTAGGGA,-0.02
13,TAGTAATA,0.182
14,AGATGGGC,-0.217
15,CTCGGTAA,-0.0294
16,AGATATCT,-0.011
17,AAGAGACT,-0.214
18,CCATTCGG,0.0904
19,AACAACAC,0.349
20,AAAACTAA,0.248
21,ATGGTGAA,-0.098
22,GCATTCCA,-0.203
23,ATGAATCC,-0.0433
24,CTGATGCA,0.113
25,GATCCGGC,-0.31

row,Sequence,PBM E-score
1,AAACTATT,-0.0299
2,CAGCCGAA,-0.158
3,CACGGGAG,-0.0313
4,ACGGGCCT,-0.0518
5,CGCCGGTA,-0.247
6,AATATCGA,-0.0885
7,GTTAAGTA,0.229
8,CTCATATA,-0.0207
9,CGCATCCC,-0.00798
10,AGCGCAGA,-0.107
11,CGTACGTA,0.193
12,CGCGAAAC,-0.126
13,ATCTAGGA,-0.0161
14,ACAAGCGT,0.0882
15,AATAAGGT,0.0275
16,ATGATAAG,0.253
17,CGTCCTGC,-0.0337
18,CGATGACC,-0.0584
19,ACAGCGAT,-0.118
20,TATACGCA,0.272
21,CCACTCGG,-0.285
22,AGTCGCGC,-0.131
23,CCGATGAC,-0.105
24,ATCTTTAG,0.0723
25,CATGTTGC,0.297

row,Sequence,PBM E-score
1,CCAGTGCG,-0.239
2,ATTCCGCC,-0.038
3,CAAACAGA,-0.118
4,ACCAATTC,0.0335
5,CGGCTCCA,-0.164
6,AGAGCGTC,-0.00811
7,GGCAGCTA,-0.0165
8,GTGCATCA,-0.00927
9,AGGTCAAT,-0.0391
10,ACGACCAT,-0.286
11,CCACGGTC,-0.385
12,ATTCAGGC,0.246
13,CCAACCCA,-0.166
14,CGGATCGA,-0.229
15,ACACGGTG,0.335
16,GGCGCTAC,-0.146
17,AAAGGCGA,0.115
18,CGCCGACA,0.0113
19,CACGCCGC,0.0517
20,AGCGTGTC,0.205
21,TATCTGGA,-0.175
22,ACTTCTAC,0.226
23,GGTTGAGA,-0.0699
24,ACTGTACA,0.217
25,TAAAAAAA,0.179

row,Sequence,PBM E-score
1,ACGGCTTG,-0.0945
2,CGGTGTGC,-0.166
3,ATTCCTAG,-0.0454
4,CGGACCCA,-0.214
5,CAGAACTG,0.0185
6,AATATTCT,-0.122
7,AGCGGTAT,0.106
8,CTATATAA,0.085
9,CAGCCAAC,-0.0943
10,AAGGCAGG,0.231
11,AACGTGAG,-0.00234
12,GCAGATCA,-0.0142
13,CCTCTACG,0.0101
14,ACTGACCA,-0.17
15,ATGGCGGC,-0.244
16,TAATCAAA,0.0852
17,GCAATTAC,0.149
18,AAACCTAT,0.0655
19,CAATAAGG,0.08
20,CAAGTGCA,0.113
21,ATCGTATA,0.154
22,AATTACAC,0.402

# Reference: the supplement of paper PMC3334620
